In ChEMBL document CHEMBL4888484, “Replenishing the malaria drug discovery pipeline: Screening and hit evaluation of the MMV Hit Generation Library 1 (HGL1) against asexual blood stage Plasmodium falciparum ,using a nano luciferase reporter read-out” (2022):
The campaign covered roughly 4,800 compounds. About 420 (8.8%) showed an effect of 50% or more. Some of the results follow.

tested on: Plasmodium falciparum; experiment: Confirmatory screen in NF54 nanoGlo assay, in single point, at 2uM, 72h; format: functional, Erythrocyte; conditions: timepoint 72 hour

Compared with `CC(C)c1ccc(-c2nn3c(C4CCN(S(C)(=O)=O)CC4)nnc3s2)cc1`, `Cc1ccc(C(N)C(C)S(C)(=O)=O)cc1` (stereo not given) is higher in “% Inhibition” value: -20% for the first, -7% for the second.

Going from `O=C1NC2(CCCC2)Nc2ccccc21` to `CN(Cc1ncnn1C)C(=O)NCC1(c2cccs2)CCCCC1`, the “% Inhibition” value falls from 2% to -20%.

Going from `O=S(=O)(c1ccc2ccccc2c1F)N1CC(CO)C1` to `CC1CN(C(=O)COc2ccc3oc4ccccc4c3c2)CC(C)O1` (stereo not given), the “% Inhibition” value rises from -17% to -3%.

Compared with `CN1Cc2cc(OCC3(O)CCOCC3)ccc2C1=O`, `CC[C@H]1Cn2c(C(=O)NC3CCCC3)cc3c(Cl)ccc(c32)O1` is lower in “% Inhibition” value: -3% for the first, -12% for the second.

First: CC[C@](C)(NCCc1c[nH]c2ccccc12)c1nnnn1CCCN1CCOCC1
Second: COc1ccc(C)c2sc(N(CCCn3ccnc3)C(=O)Cc3ccc(F)cc3)nc12
The “% Inhibition” value of the first is lower: 2% for the first, 79% for the second.

First: CC(C)(C)c1ccc(NC(=O)N[C@@]2(C)CCS(=O)(=O)C2)nn1
Second: C[C@@H](C(=O)Nc1ccc(Br)cn1)N1C(=O)CCC1=O
The “% Inhibition” value of the first is higher: -11% for the first, -16% for the second.

Going from `COCCN(CC1CC=CCC1)C(=O)C1CCC(=O)N1` (stereo not given) to `Cc1nn(-c2ccc(NC(=O)[C@@H]3CCC(=O)N3)cn2)c(C)c1Cl`, the “% Inhibition” value rises from -11% to -10%.

First: Cc1ccc(NC(=O)c2ccn(COc3ccccc3Cl)n2)nc1
Second: CC(=O)Nc1c(-c2ccc(C)cc2)c(C)nn1-c1ccc(C(=O)Nc2cc(C)ccn2)cc1
The “% Inhibition” value of the first is lower: -9% for the first, 49% for the second.

Compared with `CCn1nc(C)c(C(=O)Nc2sc3c(c2C(N)=O)CCC3)c1C`, `CCOC(=O)c1ncn(C2CCCCC2)c1N` is higher in “% Inhibition” value: -14% for the first, 1% for the second.

First: C=CCNC(=S)NS(=O)(=O)c1ccc(Cl)cc1
Second: Cc1ccc2c(c1)C1NC(=O)NC(C)(O2)C1C(=O)Nc1ccc(Cl)cc1 (stereo not given)
The “% Inhibition” value of the first is higher: 3% for the first, -3% for the second.

First: Cc1ccccc1OCc1nc2c3c(ncn2n1)Oc1cc(O)ccc1[C@@H]3c1ccccc1
Second: N#Cc1c(-c2ccccc2)cc(-c2ccccc2)n(C(=O)c2ccc(F)cc2)c1=O
The “% Inhibition” value of the first is higher: 20% for the first, 3% for the second.

First: Cc1[nH]ncc1CCCNCc1cscn1
Second: O=C(CCCc1nccs1)NCc1cc(Cl)cc2c1OCC2
The “% Inhibition” value of the first is higher: 2% for the first, -8% for the second.

Going from `CCN(CC)CC(O)COc1c(Br)cc(C(C)(C)c2cc(Br)c(OCC(O)CN(CC)CC)c(Br)c2)cc1Br` (stereo not given) to `CCCC[C@H](CC)C(=O)Nc1c(C)cccc1CC`, the “% Inhibition” value falls from 99% to -9%.

Compared with `CC(C)(C)c1cccc(Oc2nn[nH]n2)c1`, `COc1ccc(-c2cc(-c3ccccc3)nc(N3CCC(C)CC3)n2)cc1` is higher in “% Inhibition” value: 2% for the first, 50% for the second.

Compared with `c1cc(-c2nnc(-c3ccncc3)s2)ccn1`, `O=C(Cc1ncc(C(F)(F)F)cc1Cl)c1ccc(Cl)c(Cl)c1` is higher in “% Inhibition” value: -8% for the first, 3% for the second.
